Our source for the switch fluorescence ratio values is the supplement of paper PMC10126150.

Values marked as one replicate rest on one cluster of the flow cell; about a third of the high ones do not repeat.
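Also: ATP exposure 15 min at 22 °C before imaging.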

This series deals with ATP. The experiment in a line: switch fluorescence ratio, 500 uM ATP over buffer (Cy3 cluster intensity, sum of 5 cycles each) (fold (ratio)); higher = stronger signal-on switching upon ATP binding; sequences stand for … in TCGTCGGCAGCGTCAGATGTGTATAAGAGACAGTTTTTTTTTTTTTTTTTTTTTTTTT…TC. Conditions: aptamer strand: ATP DNA aptamer (quencher-CACCTGGGGGAGTATTGCGGAGGAAGG + anchor), 100 nM annealed; ATP concentration: 500 uM; one replicate. A digest of the protocol:
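The fluorescence ratio divides summed target-cycle Cy3 intensity by summed buffer-cycle Cy3 intensity for each cluster and is averaged per switch-domain sequence. Cy3-labelled switching-strand clusters on a modified Illumina MiSeq flow-cell were annealed to 100 nM quencher-labelled ATP aptamer, then imaged in selection buffer and again after 15 min with 500 uM ATP at 22 °C. Five such cycles were run, with NaOH stripping and re-annealing between them, and clusters outside 100-1000 RFU were excluded.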
For the sequence TCCAAAGCAC, the switch fluorescence ratio turned out to be 4.31.
For TACAGTGTTC, the switch fluorescence ratio amounted to 0.953.
As for GGTACAGGCT, the switch fluorescence ratio is 1.01.
Consider AGTAGCTTCA, for which the switch fluorescence ratio was 1.16.
CAAAGGTCTT: the switch fluorescence ratio was found to be 1.06.
Then TCTTGTTCTT, with 0.969.
Then TGGGGAGTC, with 1.02.
As for CGTAAGAGTT, the figure is 0.985.
Consider CATACGAGG, for which the switch fluorescence ratio amounted to 1.05.
AAGACGTTCC: the switch fluorescence ratio amounted to 2.07.
As for GTAAGTTCAG, the figure is 1.02; as for GCATTGATGC, 1.03.
On to ATGGGTCAAC, for which the switch fluorescence ratio worked out at 1.03.
Consider TGAGGCCAGA, for which the switch fluorescence ratio was found to be 1.07.
As to GTGAGTTTCG, the switch fluorescence ratio was 1.
As for AGTACTTTTG, the figure is 1.03.
As for GCGCTCAATA, the figure is 1.09; as for ACTCTTAGGA, 0.989; as for TTCTCAAGT, 1.01.
AAAGAAATCC: the switch fluorescence ratio came out at 1.
Turning to ATGATATGAG, the switch fluorescence ratio was 1.01.
As for TGACTGTCTT, the figure is 0.997; as for TGAAAACTCA, 1.02; as for TCTATCCCAT, 0.99.
For the sequence GAGCCTATTG, the switch fluorescence ratio was 1.
As for AGGAGTGGAA, the figure is 0.955; as for GATTCAGGTT, 0.999.
Then ACGGGGACTT, with 1.07; and AGTTTAAGTC, with 1.03; and CTTTTTACGA, with 1.01.
For the sequence CTCGACTGCA, the switch fluorescence ratio was 1.35.
As for AAGCTTATCG, the figure is 1.04; as for CTTTCTGTCT, 0.995.
Then GAGTACTCGA, with 1.02.
Turning to TTCCATACCT, the switch fluorescence ratio worked out at 1.32.
As for TAGGACAGTA, the figure is 1.02; as for TTACGATGAT, 1.02; as for CCATCATGCT, 1.02.
Turning to GTTTTTACAT, the switch fluorescence ratio was determined as 0.998.
Then ATTTATCTCT, with 0.98.
With GCCTTAAGAC, the switch fluorescence ratio was 1.03.
Regarding GATGATCGGA, the switch fluorescence ratio is 0.998.
Then GTACAATTTT, with 1; and GAGCAAGAAT, with 1.25.
As for ATCTATTCTT, the switch fluorescence ratio was 1.01.
As for TAAGTCTAAA, the figure is 1; as for TAGCAAAC, 4.36; as for AACTTGCAAT, 0.999.
As for TTTCGTGCTG, the switch fluorescence ratio came out at 1.09.
Then ACAGAGTCGG, with 0.984.
As for AAGCAAACT, the figure is 1.5; as for GCAAGCCCGG, 1.06; as for GGTTTAGTAT, 0.932.
As for TACGTTGAAC, the figure is 1.14; as for CAATTACGTA, 1.15.
For TTGGTGGTCA, the switch fluorescence ratio was found to be 1.04.
For CTGTATTGGT, the switch fluorescence ratio came to 1.04.
As for CATTTGACGC, the figure is 1.14; as for TGGTCTGTCA, 0.989.
As for CTTGGATCTG, the figure is 0.987; as for ATGAATATGA, 0.975; as for GTTATCGGTT, 0.98.
As for ATTTAGTTCA, the figure is 1.04; as for ATAGCACAAG, 1.03.
For TTAGTTAGAG, the switch fluorescence ratio came out at 1.
For GGTTTTACT, the switch fluorescence ratio stood at 1.01.
As to GTGTATACGT, the switch fluorescence ratio came out at 1.01.
